Laboratory results from publication PMC9619224.
These are yes or no findings as the source states them, for the method shown. In cells and extracts the contact can be indirect. Some entries that bind do so weakly or less than the wild type. Each block holds one binder with its values, some of them ahead of it.

Protein sequences, listed by entry. Tags and fused reporters are not part of them. Residues count along the entry.
UniProt P34968, residues 33-459: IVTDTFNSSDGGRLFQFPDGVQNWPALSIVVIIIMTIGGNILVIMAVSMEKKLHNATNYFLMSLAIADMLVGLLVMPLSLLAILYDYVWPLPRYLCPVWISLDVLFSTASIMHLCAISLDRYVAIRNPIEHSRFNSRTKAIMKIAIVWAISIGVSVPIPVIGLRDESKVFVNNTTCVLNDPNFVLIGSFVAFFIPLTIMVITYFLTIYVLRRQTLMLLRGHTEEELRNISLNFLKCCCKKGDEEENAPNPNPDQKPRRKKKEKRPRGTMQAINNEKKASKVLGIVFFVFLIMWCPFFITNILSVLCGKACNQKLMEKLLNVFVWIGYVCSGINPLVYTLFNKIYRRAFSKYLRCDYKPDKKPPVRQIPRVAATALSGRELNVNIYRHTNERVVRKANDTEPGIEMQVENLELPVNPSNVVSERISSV
UniProt P30875: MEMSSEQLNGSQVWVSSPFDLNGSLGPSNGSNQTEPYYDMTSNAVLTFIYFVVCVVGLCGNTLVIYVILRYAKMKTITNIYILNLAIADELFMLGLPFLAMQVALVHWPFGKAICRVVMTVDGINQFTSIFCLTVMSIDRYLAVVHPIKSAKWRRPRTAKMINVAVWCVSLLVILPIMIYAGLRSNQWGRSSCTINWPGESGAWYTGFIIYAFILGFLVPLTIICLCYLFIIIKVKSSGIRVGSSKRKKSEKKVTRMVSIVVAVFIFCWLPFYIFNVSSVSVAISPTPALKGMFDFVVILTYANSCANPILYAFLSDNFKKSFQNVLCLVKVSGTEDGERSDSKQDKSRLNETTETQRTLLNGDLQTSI
UniProt P70658: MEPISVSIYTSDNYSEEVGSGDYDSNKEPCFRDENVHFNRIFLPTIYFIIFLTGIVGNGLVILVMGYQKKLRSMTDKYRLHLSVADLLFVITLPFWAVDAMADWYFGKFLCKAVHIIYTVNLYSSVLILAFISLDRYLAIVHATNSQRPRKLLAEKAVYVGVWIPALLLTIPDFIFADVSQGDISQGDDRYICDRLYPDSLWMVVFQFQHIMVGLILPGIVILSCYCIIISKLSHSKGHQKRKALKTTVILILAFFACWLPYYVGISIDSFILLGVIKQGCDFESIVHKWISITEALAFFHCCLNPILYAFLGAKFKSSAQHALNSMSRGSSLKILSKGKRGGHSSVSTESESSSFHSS
UniProt Q9EQQ3: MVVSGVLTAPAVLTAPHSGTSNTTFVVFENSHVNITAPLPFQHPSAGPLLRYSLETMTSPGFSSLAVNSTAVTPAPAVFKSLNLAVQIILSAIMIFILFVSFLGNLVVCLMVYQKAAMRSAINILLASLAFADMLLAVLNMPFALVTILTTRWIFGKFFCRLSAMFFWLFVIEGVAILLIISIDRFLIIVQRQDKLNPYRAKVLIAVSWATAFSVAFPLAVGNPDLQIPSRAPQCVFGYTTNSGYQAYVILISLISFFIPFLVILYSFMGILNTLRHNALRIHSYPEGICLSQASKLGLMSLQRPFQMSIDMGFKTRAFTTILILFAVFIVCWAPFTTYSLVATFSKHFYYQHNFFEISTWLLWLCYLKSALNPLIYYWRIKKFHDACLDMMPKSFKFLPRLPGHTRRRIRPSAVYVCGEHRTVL
UniProt Q99P50: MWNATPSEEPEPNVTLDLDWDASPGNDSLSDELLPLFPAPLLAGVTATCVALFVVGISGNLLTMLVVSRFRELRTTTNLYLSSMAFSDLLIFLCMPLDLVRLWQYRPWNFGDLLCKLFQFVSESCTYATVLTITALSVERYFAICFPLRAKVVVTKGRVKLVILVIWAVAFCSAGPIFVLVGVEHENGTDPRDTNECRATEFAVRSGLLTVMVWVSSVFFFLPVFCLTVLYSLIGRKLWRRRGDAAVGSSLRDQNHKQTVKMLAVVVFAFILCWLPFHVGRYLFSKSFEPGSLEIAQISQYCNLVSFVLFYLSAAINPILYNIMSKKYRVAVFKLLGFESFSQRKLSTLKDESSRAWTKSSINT
UniProt Q8BZ39: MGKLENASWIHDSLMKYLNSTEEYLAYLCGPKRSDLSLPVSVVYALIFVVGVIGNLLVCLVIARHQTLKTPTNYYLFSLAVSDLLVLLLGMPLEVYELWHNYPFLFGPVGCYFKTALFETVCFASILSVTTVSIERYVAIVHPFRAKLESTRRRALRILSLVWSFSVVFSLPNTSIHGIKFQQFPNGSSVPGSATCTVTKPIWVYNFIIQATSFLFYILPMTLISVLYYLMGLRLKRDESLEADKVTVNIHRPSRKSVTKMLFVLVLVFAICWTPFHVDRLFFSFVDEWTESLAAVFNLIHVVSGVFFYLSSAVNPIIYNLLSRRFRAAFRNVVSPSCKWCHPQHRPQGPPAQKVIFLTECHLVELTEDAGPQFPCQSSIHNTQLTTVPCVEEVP
UniProt P34971: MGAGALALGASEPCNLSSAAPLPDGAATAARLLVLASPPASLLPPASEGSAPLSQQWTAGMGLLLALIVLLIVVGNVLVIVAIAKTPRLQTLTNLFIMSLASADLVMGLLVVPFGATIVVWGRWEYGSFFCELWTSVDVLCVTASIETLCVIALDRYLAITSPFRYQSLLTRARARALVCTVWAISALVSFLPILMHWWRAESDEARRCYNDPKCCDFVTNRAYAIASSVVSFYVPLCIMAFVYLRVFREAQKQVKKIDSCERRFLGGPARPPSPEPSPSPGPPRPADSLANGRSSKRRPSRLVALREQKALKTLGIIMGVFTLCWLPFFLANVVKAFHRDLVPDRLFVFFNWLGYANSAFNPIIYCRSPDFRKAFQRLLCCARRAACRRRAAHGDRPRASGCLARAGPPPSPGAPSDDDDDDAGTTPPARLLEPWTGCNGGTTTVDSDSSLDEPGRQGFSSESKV
UniProt P32240: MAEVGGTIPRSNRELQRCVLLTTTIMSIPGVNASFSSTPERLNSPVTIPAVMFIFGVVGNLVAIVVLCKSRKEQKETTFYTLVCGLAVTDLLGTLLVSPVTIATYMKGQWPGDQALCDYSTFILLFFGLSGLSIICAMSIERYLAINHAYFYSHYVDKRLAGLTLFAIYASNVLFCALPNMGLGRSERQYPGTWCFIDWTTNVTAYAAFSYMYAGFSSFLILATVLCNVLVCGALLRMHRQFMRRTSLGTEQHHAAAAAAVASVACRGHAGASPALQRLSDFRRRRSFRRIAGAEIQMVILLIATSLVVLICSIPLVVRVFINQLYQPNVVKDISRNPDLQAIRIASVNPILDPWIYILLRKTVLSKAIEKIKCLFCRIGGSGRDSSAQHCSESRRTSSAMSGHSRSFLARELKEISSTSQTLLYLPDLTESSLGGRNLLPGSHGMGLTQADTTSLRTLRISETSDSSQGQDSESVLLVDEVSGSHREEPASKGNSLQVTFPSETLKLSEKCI

Columns and labels:
Assay in all cases: co-IP; HEK293T cells transfected with 3xHA-GPCR and 2xFlag-MRAP1 or MRAP2; GPCR immunoprecipitated with rabbit anti-HA, Protein A/G agarose, overnight at 4°C; MRAP detected by mouse anti-Flag blot
[1] = target: 5‐Hydroxytryptamine (serotonin) receptor 2C (mouse) (UniProt P34968)
[2] = target: Somatostatin receptor 2 (mouse) (UniProt P30875)
[3] = target: Chemokine (C‐X‐C motif) receptor 4 (mouse) (UniProt P70658)
[4] = target: T1, Gastric inhibitory polypeptide receptor (mouse) (UniProt Q0P543)
T1 sequence: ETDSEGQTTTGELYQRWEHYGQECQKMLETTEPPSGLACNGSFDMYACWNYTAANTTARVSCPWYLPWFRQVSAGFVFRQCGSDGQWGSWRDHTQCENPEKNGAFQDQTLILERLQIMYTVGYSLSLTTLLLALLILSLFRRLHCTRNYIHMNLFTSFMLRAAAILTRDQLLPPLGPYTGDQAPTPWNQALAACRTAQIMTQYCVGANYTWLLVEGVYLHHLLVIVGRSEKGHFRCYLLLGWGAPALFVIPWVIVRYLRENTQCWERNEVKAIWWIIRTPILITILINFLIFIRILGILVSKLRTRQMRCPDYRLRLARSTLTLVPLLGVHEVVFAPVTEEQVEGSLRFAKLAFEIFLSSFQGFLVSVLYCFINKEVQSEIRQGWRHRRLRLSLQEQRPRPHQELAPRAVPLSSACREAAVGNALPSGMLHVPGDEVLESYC

[5] = target: T2, Neuropeptide Y receptor Y5 (mouse) (UniProt O70342)
T2 sequence: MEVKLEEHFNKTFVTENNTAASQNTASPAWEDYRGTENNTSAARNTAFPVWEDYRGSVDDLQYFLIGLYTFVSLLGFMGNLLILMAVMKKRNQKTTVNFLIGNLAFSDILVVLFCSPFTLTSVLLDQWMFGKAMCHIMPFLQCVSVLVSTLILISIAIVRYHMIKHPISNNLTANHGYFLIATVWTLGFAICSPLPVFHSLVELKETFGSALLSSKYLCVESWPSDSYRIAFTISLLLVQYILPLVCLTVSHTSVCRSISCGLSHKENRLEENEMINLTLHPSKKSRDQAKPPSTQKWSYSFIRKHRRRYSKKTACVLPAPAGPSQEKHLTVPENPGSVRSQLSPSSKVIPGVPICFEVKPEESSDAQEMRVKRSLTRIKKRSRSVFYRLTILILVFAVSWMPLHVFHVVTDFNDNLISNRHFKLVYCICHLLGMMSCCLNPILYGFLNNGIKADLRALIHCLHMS

[6] = target: G protein‐coupled receptor 63 (mouse) (UniProt Q9EQQ3)
[7] = target: T3, G protein‐coupled receptor 176 (mouse) (UniProt Q80WT4)
T3 sequence: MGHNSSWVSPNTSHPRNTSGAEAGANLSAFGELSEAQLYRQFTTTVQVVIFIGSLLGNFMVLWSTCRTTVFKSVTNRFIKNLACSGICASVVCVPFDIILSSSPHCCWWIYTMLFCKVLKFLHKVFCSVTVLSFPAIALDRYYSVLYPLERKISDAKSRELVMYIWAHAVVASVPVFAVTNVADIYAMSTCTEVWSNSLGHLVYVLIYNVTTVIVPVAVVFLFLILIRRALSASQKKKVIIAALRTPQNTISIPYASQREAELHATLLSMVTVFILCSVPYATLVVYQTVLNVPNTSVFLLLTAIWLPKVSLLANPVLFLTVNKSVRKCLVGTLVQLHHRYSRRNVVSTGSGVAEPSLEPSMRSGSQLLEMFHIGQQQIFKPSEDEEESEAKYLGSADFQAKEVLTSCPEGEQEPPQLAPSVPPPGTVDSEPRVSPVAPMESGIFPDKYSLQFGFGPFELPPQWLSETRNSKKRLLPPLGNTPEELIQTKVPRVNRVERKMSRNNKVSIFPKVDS

[8] = target: Growth hormone secretagogue receptor (mouse) (UniProt Q99P50)
[9] = target: Neuromedin U receptor 2 (mouse) (UniProt Q8BZ39)
[10] = target: Adrenergic receptor, beta 1 (mouse) (UniProt P34971)
[11] = target: Prostaglandin E receptor 4 (subtype EP4) (mouse) (UniProt P32240)

binding [1]: binds
binding [2]: no binding
binding [3]: no binding
binding [4]: binds
binding [5]: no binding
binding [6]: binds
binding [7]: no binding
binding [8]: binds
binding [9]: binds
binding [10]: binds
binding [11]: binds
B1: melanocortin receptor accessory protein MRAP1 (protein, UniProt Q9D159 1-127)
chain: MANGTDASVPLTSYEYYLDYIDLIPVDEKKLKANKHSIVIALWLSLATFVVLLFLILLYMSWSGSPQMRHSPQPQPICSWTHSFNLPLCLRRASLQTTEEPGRRAGTDQWLTQQSPSASAPGPLALP

binding [1]: binds
binding [2]: binds
binding [3]: binds
binding [4]: binds
binding [5]: binds
binding [6]: binds
binding [7]: binds
binding [8]: binds
binding [9]: binds
binding [10]: binds
binding [11]: binds
B2: melanocortin receptor accessory protein MRAP2 (protein, UniProt D3Z1Q2 1-207)
chain: MEMSAQRLASNRTSPQSPSNSDYTWEYEYYEIGPVSFEGLKAHKYSIVIGFWVGLAVFVIFMFFVLTLLTKTGAPHQDNAESSERRFRMNSFVSDFGKPLESDKVFSRQGNEESRSLFHCYINEVEHLDRVKVCHQTTAIDSDVHLQEASRSSGRPEEELARFMKFDIPNFVNTEQSSFGEDDLLISEAPVLLENKPVSQTSRIDLD
